# Experimental data taken from PubChem BioAssay AID540317 (National Center for Advancing Translational Sciences (NCATS), 2011).
# Among all 390,000 compounds or so, about 2,200 (0.56%) were called active. The shares of active, inactive and inconclusive entries below differ from those in the screen. The call rests on the fitted dose curve; in most records, active means well fitted inhibition curve with a large enough effect; inconclusive means small, poorly fitted or top-dose-only effect; inactive means no such curve, though single readings can be large or run the other way. A potency beside an inconclusive call is a rough fit, not a confirmed value.
# Target: Chromobox protein homolog 1 (Homo sapiens) (UniProt P83916)
# UniProt P83916, sequence (P83916 whole entry, looked up): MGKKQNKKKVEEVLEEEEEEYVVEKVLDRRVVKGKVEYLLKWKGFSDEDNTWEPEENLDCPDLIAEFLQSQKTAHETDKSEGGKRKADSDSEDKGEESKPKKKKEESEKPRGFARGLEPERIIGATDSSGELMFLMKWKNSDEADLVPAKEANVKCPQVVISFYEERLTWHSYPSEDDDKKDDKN
# Assay: HTS for Inhibitors of HP1-beta Chromodomain Interactions with Methylated Histone Tails; further: nearly all actives have a fitted effect of over 70% in size
# Details: AlphaScreen HP1-beta / biotin-H3K9me3 peptide binding; series mostly up to 114 µM
# Method in brief: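 AlphaScreen: HP1-beta (50 nM) preformed 30 min with biotin-H3(1-18)K9me3 peptide (50 nM) in PBS pH 7.4, 0.01% Tween-20. Compound added for 30 min at RT, then streptavidin donor/nickel chelate acceptor beads (10 ug/mL) for 30 min.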
# Potency means the concentration at half of the fitted maximal effect; tags describe the fitted curve by direction and shape.
row,SMILES,Potency
1,O=C(N/N=C/c1ccc(O)c(O)c1O)/C(=C/c1ccc([N+](=O)[O-])cc1)NC(=O)c1ccccc1,active: 25.1 µM
2,CCOC(=O)/C=C/C(=O)Nc1cccc([N+](=O)[O-])c1,"inconclusive: 6.31 µM [inhibitor, full curve, poor fit]"
3,COc1ccc(OC)c(C2CC(=O)N3CN(c4cccc(Cl)c4C)CSC3=C2C#N)c1 (stereo not given),"inconclusive: 10 µM [inhibitor, full curve, poor fit]"
4,CCOC(=O)/C(CCC[N+](C)(CC)CC)=N\O,"inconclusive: 89.1 µM [inhibitor, partial curve, poor fit]"
5,O=C(COc1ccc(C(=O)NCCN2CCOCC2)cc1)Nc1cccc(C(F)(F)F)c1,inactive
6,O=C(NNC(=O)c1cc(S(=O)(=O)N2CCOCC2)c(Cl)cc1Cl)c1ccccc1F,inactive
7,CC(C)Oc1ccc(CNC(=O)c2ccc(CS(=O)c3cccc(Cl)c3)o2)cc1 (stereo not given),inactive
8,CC/C(=N\Nc1ccc([N+](=O)[O-])cc1)c1ccccc1,inactive
9,CC(CN1CCCCC1)c1ccccc1 (stereo not given),"inconclusive: 50.1 µM [inhibitor, partial curve, poor fit]"
10,COCCCNC(=O)C[C@H]1C[C@H](C(=O)N(C(C)C)C(C)C)[C@@]2(C)c3[nH]c4ccc(Cl)cc4c3CCN2C1=O,"inconclusive: 35.5 µM [inhibitor, single point]"
11,Cc1[nH]n(-c2ccccc2)c(=O)c1C(c1cc(Cl)ccc1O)c1c(C)[nH]n(-c2ccccc2)c1=O,"inconclusive: 31.6 µM [inhibitor, partial curve, poor fit]"
12,CCOC(=O)c1ccc(NC2c3ncccc3C(=O)N2Cc2ccc(F)cc2)cc1 (stereo not given),inactive
13,COc1ccc(NC(=S)NC2CCCCC2)c(OC)c1,"inconclusive: 50.1 µM [inhibitor, partial curve, poor fit]"
14,O=C(CSc1nnc(Cn2c(=O)sc3ccccc32)n1-c1ccccc1)N1CCOCC1,inactive
15,COC(=O)C(Cc1c[nH]c2ccccc12)NC(=O)C(C)C (stereo not given),inactive
16,Cc1ccccc1NC(=O)N1CCN(S(=O)(=O)c2ccccc2)CC1,"inconclusive: 15.8 µM [inhibitor, full curve]"
17,O=[N+]([O-])c1cccc(/C=N/NC2=NS(=O)(=O)c3ccccc32)c1,"inconclusive: 44.7 µM [inhibitor, partial curve, poor fit]"
18,COc1cccc(-n2c(-c3ccccc3)c[nH]c2=S)c1,"inconclusive: 56.2 µM [inhibitor, partial curve, poor fit]"
19,CCCCC[C@H](O)/C=C/[C@@H]1[C@@H](C/C=C\CCCC(=O)OC)[C@@H](O)C[C@H]1O,"inconclusive: 5.01 µM [inhibitor, full curve, poor fit]"
20,CC(C)=Cc1oc2ccc([N+](=O)[O-])cc2c1N1CC(C)OC(C)C1 (stereo not given),"inconclusive: 14.1 µM [inhibitor, partial curve]"
21,COc1ccc(CNC(=O)CCC(=O)Nc2cccnc2)cc1,inactive
22,Cc1ccc(C(=O)NCC(=O)Nc2ccc3c(c2)CCC3)cc1C,inactive
23,CC1CCN(c2oc(-c3cccs3)nc2S(=O)(=O)c2ccccc2)CC1,"inconclusive: 15.8 µM [inhibitor, partial curve, poor fit]"

row,SMILES,Potency
1,CC(=O)N1CCc2cc(Br)cc(S(=O)(=O)N3CCN(c4ccccn4)CC3)c21,"inconclusive: 7.08 µM [inhibitor, full curve, poor fit]"
2,CN1CCN(c2ccc(NC(=O)c3ccc(-c4ccc(Br)cc4)o3)cc2)CC1,"inconclusive: 25.1 µM [inhibitor, full curve]"
3,Cc1ccc(-c2nc3c(c(=O)c4ccccc4n3C)c(=O)n2Cc2ccco2)cc1,inactive
4,O=C(CSc1nc2ccccc2s1)Nc1cc(S(=O)(=O)N2CCOCC2)ccc1Cl,"inconclusive: 35.5 µM [inhibitor, single point]"
5,CCOC(=O)c1cc(-c2ccccc2)n(CCC(=O)NCCc2ccccc2)c1C,"inconclusive: 31.6 µM [inhibitor, partial curve, poor fit]"
6,COc1ccc(SCc2noc(C(=O)NC(C)C)c2C(=O)O)cc1,inactive
7,S=C(NCc1ccco1)NCc1ccco1,active: 35.5 µM
8,CCOC(=O)c1c(O)cc(OC)cc1CCc1ccccc1,inactive
9,Cc1ccc(S(=O)(=O)N2CCC(C)CC2)c([N+](=O)[O-])c1,"inconclusive: 39.8 µM [inhibitor, single point]"
10,CCOc1ccc(-n2c(N)c(C(=O)NCC3CCCO3)sc2=S)cc1 (stereo not given),active: 17.8 µM
11,CN1CCN(C(=O)C2CCCN(S(=O)(=O)c3ccc(F)cc3)C2)CC1 (stereo not given),"inconclusive: 17.8 µM [inhibitor, partial curve, poor fit]"
12,CC(=O)c1cccc(NC(=O)CN2CCN(Cc3ccccc3)CC2)c1,"inconclusive: 20 µM [inhibitor, full curve]"
13,CC(=O)c1ccc(NCC2COc3ccccc3O2)c([N+](=O)[O-])c1 (stereo not given),"inconclusive: 44.7 µM [inhibitor, partial curve, poor fit]"
14,COc1cccc(OCC(=O)NNC(=O)c2ccc(-c3ccccc3)cc2)c1,"inconclusive: 31.6 µM [inhibitor, single point]"
15,CSc1n[nH]c(=S)n1N,"inconclusive: 50.1 µM [inhibitor, single point]"
16,N#Cc1ccsc1NC(=O)c1cccc(-n2cnnn2)c1,inactive
17,COc1ccc(CN2CCN(c3ccccc3OC)CC2)cc1OC,"inconclusive: 20 µM [inhibitor, partial curve, poor fit]"
18,O=C1C(Cl)=C(NCCCO)C(=O)c2ccccc21,"inconclusive: 70.8 µM [inhibitor, partial curve]"
19,CCC[N+](CC#CCO)(CC#Cc1ccccc1)CCC,inactive
20,CCOc1ccccc1N1CCN(Cc2ccco2)CC1,"inconclusive: 79.4 µM [inhibitor, single point]"
21,CCCCS(=O)(=O)Nc1ccc2c(c1)ncn2C1CCCCC1,inactive
22,CCOc1ccc(-n2c(=O)c3c4c(sc3n(Cc3cccc(C)c3)c2=O)CCCC4)cc1,inactive
